Assay results published in the supplement of paper PMC3334620.
The full ranking holds about 33,000 sequences; the median of “E-score (-0.5 to 0.5)” is about -0.011, and the highest 2% start at about 0.28. The list shows a part of the results.

What follows are sequences tested against T1, Gcr1 (UniProt P07261) (assay: PBM E-score (8-mer binding enrichment) (E-score (-0.5 to 0.5)); higher = stronger / more preferred TF binding; most listed sequences are background and not binding sites). Details: protein concentration: 100 nM; construct: GST-full length.
T1 sequence: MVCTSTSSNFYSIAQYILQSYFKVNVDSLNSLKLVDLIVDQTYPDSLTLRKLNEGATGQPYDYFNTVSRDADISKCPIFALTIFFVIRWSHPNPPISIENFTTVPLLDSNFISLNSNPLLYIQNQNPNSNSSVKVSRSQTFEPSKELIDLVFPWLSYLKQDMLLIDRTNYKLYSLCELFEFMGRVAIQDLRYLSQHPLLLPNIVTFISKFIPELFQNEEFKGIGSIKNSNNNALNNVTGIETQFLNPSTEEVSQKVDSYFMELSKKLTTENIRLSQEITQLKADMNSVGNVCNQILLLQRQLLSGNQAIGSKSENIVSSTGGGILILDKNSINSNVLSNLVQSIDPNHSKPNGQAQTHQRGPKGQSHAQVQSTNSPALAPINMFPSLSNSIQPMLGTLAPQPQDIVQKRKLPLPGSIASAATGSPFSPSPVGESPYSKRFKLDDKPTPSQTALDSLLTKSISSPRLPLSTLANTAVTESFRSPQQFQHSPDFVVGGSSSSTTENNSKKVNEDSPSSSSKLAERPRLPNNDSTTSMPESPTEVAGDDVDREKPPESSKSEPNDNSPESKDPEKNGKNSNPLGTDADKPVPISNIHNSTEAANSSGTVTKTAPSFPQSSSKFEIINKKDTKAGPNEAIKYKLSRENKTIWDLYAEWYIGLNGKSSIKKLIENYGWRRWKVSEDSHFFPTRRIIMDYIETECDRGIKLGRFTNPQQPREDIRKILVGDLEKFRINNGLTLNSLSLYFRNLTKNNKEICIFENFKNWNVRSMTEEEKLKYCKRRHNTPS
Experimental: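 Universal 'all 10-mer' protein binding microarrays (Agilent AMADID 015681) probed with GST-tagged S. cerevisiae TFs (full-length or DBD) made by in vitro transcription/translation (PURExpress), about 100-200 nM. Bound TF was detected with fluorescent anti-GST. Each ungapped 8-mer (which stands for itself and its reverse complement) is scored by the PBM enrichment score (E-score), a modified Wilcoxon-Mann-Whitney statistic from -0.5 to +0.5, computed with the Universal PBM Analysis Suite. Scale: above 0.35 generally sequence-specific binding.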

Sequence | PBM E-score
ATAACAGC | -0.0429
CTCTCAAA | -0.0198
GGCTTAAA | -0.0412
GCGAGCGC | -0.0888
GCACTCAC | -0.272
GACTTCAC | -0.131
ATCCTTCA | 0.00843
CATTGGGC | -0.0484
ACCCGATG | -0.0442
GCACAGCC | -0.14
TAAAAACA | 0.124
AAGCCCGT | -0.0227
GTCTTGAA | 0.0745
AAGACTAG | -0.125
CTTCAGCA | -0.0569
ATCTTTGA | -0.0179
GCCGACAA | 0.00717
GACTCCGA | 0.0546
GAGAAATC | -0.0896
ACGTCTCC | 0.101
ACGTTGTG | 0.111
CGGCGACA | 0.0198
AATGGGAG | 0.0925
TGGGTAAA | 0.0715
CCAAACGC | 0.122

Sequence | PBM E-score
ACCGCTGA | -0.0837
GGCATATA | 0.0123
AGGTGGGA | -0.203
AATAAACA | 0.102
GATCATGC | -0.0461
AATAGCAG | 0.0707
AATCGGTG | -0.1
ATTCTATC | 0.00132
AGGACACC | -0.0484
GTTCCAAA | 0.302
CTAGGGTA | -0.116
ACCTCGAC | -0.215
GCCCGACC | -0.225
AGTAATGA | -0.0951
CGCGCCTC | 0.0569
AGTAGATA | 0.0938
AAGTCAGT | -0.051
AGGAAGTC | 0.337
AAGGCAAG | -0.303
ACAGCGCG | -0.101
ATCTGTGC | -0.15
CGAGGAGA | -0.0605
ACATTGAT | 0.202
GGGAAAAA | 0.119
AGCCCACC | 0.114

Sequence | PBM E-score
AGTTGCCC | 0.00277
CCCGATCC | -0.14
GCATTTAC | -0.133
AATAGTTG | 0.199
AAAACAAA | 0.133
CGTCACGC | 0.0174
CACGCCAC | -0.0186
AAGCACGA | -0.158
GAGGGCGA | -0.169
CTGATTCC | -0.0213
CAGAGGTC | -0.141
AGGTAACC | 0.0371
CGGATTCC | 0.463
GCTGGAAC | -0.0311
GCACGTGC | -0.067
ACACCAAA | 0.0653
GCGTCTGA | 0.245
AAAATCGA | -0.0278
ATACTATA | -0.0912
AAAATCCG | 0.111
AACGATAT | 0.0585
CGATGCGC | 0.0541
CGTAAAAG | 0.277
CAACTCAA | 0.0769
CTGAGGCA | -0.169

Sequence | PBM E-score
CCGCGTAA | -0.0308
ATGCGCTA | 0.0378
CTTAAGAC | -0.104
ACGGTCCT | -0.316
CGAAGAGC | -0.081
CGATCTTA | -0.045
TTACGGAA | 0.141
TAGTCAAA | -0.0803
CATTGAGC | -0.158
CGGGGACA | -0.162
CACGCAAG | -0.161
ACTGCACC | 0.014
GTTAGTCA | -0.0875
GCGTCAAC | -0.044
AGCTTGAT | -0.0733
CACTAAGC | -0.0075
ATAGCAAG | 0.069
AACCGTGT | 0.0252
AGTGCCGG | -0.0544
GTTTGCCA | -0.12
AAACCCAT | -0.0008
ACGAGACG | -0.00848
ATGATGGG | -0.00476
CTGACTGA | 0.00818
AATGGACT | -0.0935

Sequence | PBM E-score
AGTCCTGA | 0.176
GCTCTATA | -0.0304
CGGTTTAC | -0.242
TTTAGAAA | 0.145
CGATCTCC | -0.0795
CAGCTAGC | -0.147
AGAACAAA | 0.0755
CGCGCGAG | -0.0112
AATTATAT | 0.195
AAAGTGGG | 0.0574
GATACATA | -0.0594
CGCATGTC | -0.166
CTAATCTC | -0.00798
TCAGCTAA | -0.225
GACCTGAA | -0.0733
CACGAGAG | -0.108
AATGGGAT | 0.28
CCAAGGGC | -0.269
AAACGTTA | -0.157
ACACCAGA | 0.0664
CGTAACCA | 0.063
CCTTCCCC | -0.122
CGGAACCG | 0.18
ACTCAAAG | 0.141
CCACCCGG | -0.118

Sequence | PBM E-score
AACAAACT | 0.0877
ATGAGGTC | -0.16
AGTGGTCA | -0.00597
CAAACGAA | 0.0386
AGCAAGCC | -0.272
CCGGATGA | 0.112
AAGCGTGA | -0.237
CTCAGCGA | 0.0232
CCTCGACC | -0.184
CTTTAATA | 0.0353
ACATGCAG | 0.0565
CTACCGAG | 0.111
AACAGGTA | 0.269
AATAGGCC | -0.127
CTAGTGGC | 0.106
CGTCGAAC | -0.147
AGACAAAC | -0.154
CTGCACTC | -0.185
AGACCCCG | -0.0624
AGAGCCAT | -0.0751
GCCAGTCC | -0.0339
AAATTTGG | 0.301
ATAAGCGC | -0.158
ATGAGTCC | 0.039
CAGTTCCG | 0.00837

Sequence | PBM E-score
GATCGAGC | -0.116
GACCCCTA | 0.0124
ACTGTTTC | -0.0198
ACCTATCT | 0.0198
AGCCCGAC | -0.197
CGCGGCAG | 0.0485
AATGAGGG | -0.0211
GACAAAGC | 0.0944
CTTGCACA | 0.0305
CCCACGTC | -0.321
CACACAGA | -0.069
ATCGACAG | 0.0501
GTTGTCTA | -0.117
ACGCGTAT | 0.244
GGAGTAGA | 0.0945
ACCTGGAT | 0.0846
TATCGATA | -0.0551
AGCCTAAG | -0.128
CTTGTCGA | -0.0881
CCAAGACG | 0.00442
ACTGTCCA | -0.241
CGTCTAAG | 0.171
